# Test results from PubChem BioAssay AID1477 (National Center for Advancing Translational Sciences (NCATS), 2009).
# In all, about 230,000 compounds went through this assay and fewer than 10 were called active. This list was built around the results that the source calls inconclusive (neither active nor inactive); the mix of calls is not that of the screen. The call rests on the fitted dose curve; in most records, active means well fitted curve in the direction sought with a large enough effect; inconclusive means small, poorly fitted or top-dose-only effect, or effect the other way, or another doubt; inactive means no such curve, though single readings can be large or run the other way. Potencies of inconclusive entries are left out as doubtful fits.
# Target: Runt-related transcription factor 1 (Homo sapiens) + Core-binding factor subunit beta (Homo sapiens) (UniProt Q01196+Q13951)
# Chain of UniProt Q01196 (Q01196 whole entry, looked up): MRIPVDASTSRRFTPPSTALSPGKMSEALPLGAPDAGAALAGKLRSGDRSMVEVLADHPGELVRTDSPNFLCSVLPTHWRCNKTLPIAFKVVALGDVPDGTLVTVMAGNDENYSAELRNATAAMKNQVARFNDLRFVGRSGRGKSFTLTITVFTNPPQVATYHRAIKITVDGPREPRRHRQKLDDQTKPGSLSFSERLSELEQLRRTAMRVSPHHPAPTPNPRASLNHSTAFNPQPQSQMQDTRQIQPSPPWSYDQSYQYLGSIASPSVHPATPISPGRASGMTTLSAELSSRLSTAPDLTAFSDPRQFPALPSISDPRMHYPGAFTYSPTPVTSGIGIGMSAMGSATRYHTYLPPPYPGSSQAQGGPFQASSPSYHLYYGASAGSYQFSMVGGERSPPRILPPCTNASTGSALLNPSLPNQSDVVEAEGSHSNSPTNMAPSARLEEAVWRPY
# Chain of UniProt Q01196 (Q13951 whole entry, looked up): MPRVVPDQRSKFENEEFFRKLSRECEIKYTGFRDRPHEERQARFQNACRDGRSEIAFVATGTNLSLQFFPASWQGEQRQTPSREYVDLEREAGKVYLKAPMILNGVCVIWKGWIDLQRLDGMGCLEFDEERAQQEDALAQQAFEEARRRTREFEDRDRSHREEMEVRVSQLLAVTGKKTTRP
# Assay: qHTS Assay for Compounds Blocking the Interaction Between CBF-beta and RUNX1 for the Treatment of Acute Myeloid Leukemia; on activity, negative = inhibition: % of control where 0% means no effect
# Conditions: AlphaScreen CBFb-His/RUNX1-biotin binding, biochemical; activity, negative = inhibition: at 59.8 µM (top of the series) unless noted
# Procedure, shortened: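 CBF-beta (His) and RUNX1 (biotin), 30 nM each; 20 min preassociation; + compound, 15 min; + beads 50 ng each (Ni, streptavidin), 90 min; RT; AlphaScreen read.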
SMILES,"activity, negative = inhibition",Potency
COc1cc2nc(=S)n3[nH]c(CCn4nc(C)cc4C)nc3c2cc1OC,inactive: -2.52%,
CN(C)c1cccc(C(=O)OC(C(=O)Nc2ccc([N+](=O)[O-])cc2Br)c2ccccc2)c1 (configuration not stated),,"inconclusive [inhibitor, partial curve]"
CC(=NCCCN1CCOCC1)c1c(O)n(-c2ccccc2C)c(=O)[nH]c1=O,inactive: 6.75%,
CC(C)C[C@H](NC(=O)c1[nH]cnc1C(=O)N[C@@H](C)C(=O)OC(C)(C)C)C(=O)OC(C)(C)C,inactive: 15.8%,
COc1ccc(C(C)=O)cc1COc1ccc(-n2cnnn2)cc1,inactive: -11.7%,
N#Cc1ccc(/C=C\c2nccc3c2[nH]c2ccccc23)cc1,,"inconclusive [activator, full curve]"
O=C(O)c1cccc(-n2cccc2/C=N/O)c1,,"inconclusive [inhibitor, partial curve]"
Cc1cccc(C)c1N,,"inconclusive [activator, partial curve, poor fit]"
Cc1cc(C(=O)CN2C(=O)NC3(CCCc4sccc43)C2=O)c(C)n1-c1ccccc1 (configuration not stated),,"inconclusive [inhibitor, single point]"
Cc1ccc2nsnc2c1NC(=O)c1ccc([N+](=O)[O-])cc1,inactive: -2.05%,
O=C1/C(=C\c2ccccn2)SC(=S)N1c1ccc(S(=O)(=O)Nc2nccs2)cc1,,"inconclusive [inhibitor, partial curve]"
[N-]=C=C1C(=S)NC(=O)[C@H]([n+]2ccccc2)[C@H]1c1ccc(Cl)cc1,,"inconclusive [inhibitor, partial curve]"
c1ccc(-c2cc3nccc(-c4ccccn4)n3n2)cc1,,"inconclusive [activator, partial curve]"
Cc1ccc(C(=O)N2CCN(c3ccc([N+](=O)[O-])c(NCc4ccco4)c3)CC2)cc1,,"inconclusive [inhibitor, single point]"
Cc1ccc(NC(=O)CN(C)Cc2nc3ccccc3c(=O)[nH]2)c(Br)c1,inactive: 1.12%,
CCOC(=O)CSc1cc(CSc2ccccc2)nc(-c2ccccc2)n1,,"inconclusive [activator, partial curve]"
CC(C)Nc1nc(NC(C)C)nc(C(=O)OCCO)n1,,"inconclusive [inhibitor, partial curve]"
Oc1ccc(N=C/C=C/c2cccc(Br)c2)cc1-c1nc2ccccc2s1,,"inconclusive [inhibitor, single point]"
COC(=O)N[C@H](C[N+](=O)[O-])c1cccc(C)c1,inactive: 14.1%,
Cc1ccc(Nc2nc(CSc3nnc(-c4ccncc4)n3-c3ccccc3C)cs2)cc1,,"inconclusive [inhibitor, partial curve]"
O=C(Cc1cnc2ncnn2c1)N1CCc2c([nH]c3ccccc23)C1c1ccccc1F (configuration not stated),inactive: -10.1%,
CC(C)n1cnc2c(NCc3ccccc3)nc(NCCCO)nc21,,"inconclusive [activator, partial curve]"
Cc1ccccc1-n1c(SCC(=O)c2cc(C)n(C)c2C)nnc1-c1cccnc1,,"inconclusive [inhibitor, single point]"
NS(=O)(=O)c1ccc(N2N=C(c3ccccc3)CC2c2ccccc2)cc1 (configuration not stated),,"inconclusive [activator, partial curve]"

SMILES,"activity, negative = inhibition",Potency
CCn1c(SCc2nc3sc(C(=O)O)c(C)c3c(=O)[nH]2)nc2ccccc21,,"inconclusive [inhibitor, partial curve]"
COC(=O)N/N=C/c1ccc(-c2ccccc2Cl)o1,inactive: -2.74%,
O=[N+]([O-])c1ccc(Oc2ccc(F)cc2Br)c2ccncc12,,"inconclusive [inhibitor, single point]"
O=C(c1cccs1)N1N=C(c2ccccc2)CC1c1ccccc1O (configuration not stated),inactive: -2.56%,
CCOc1ccc(NC(=O)CSc2nnc(-c3ccccc3Cl)n2Cc2ccco2)cc1,inactive: -28.8%,
Cc1nc2c(sc3nc4c(cc32)COC(C)(C)C4)c(=O)n1CC(=O)NCc1ccco1,inactive: 2.55%,
COc1ccc(/C=C/c2ccc(=O)n(Cc3ccccc3)n2)cc1,,"inconclusive [activator, single point]"
Cc1cccc(Cn2cnc3c(nnn3Cc3ccc(F)cc3)c2=O)c1,inactive: -2.03%,
NC(=O)COC(=O)c1c2c(nc3ccccc13)CCC2,,"inconclusive [inhibitor, single point]"
Clc1cccc(C(Cl)(Cl)Cl)n1,inactive: 7.21% [at 21.7 µM],
COc1ccc(CNc2oc(-c3cccc4ccccc34)nc2P(=O)(OC)OC)cc1,,"inconclusive [activator, partial curve]"
COc1ccc(NC(=O)c2ccc(C#N)cc2)cc1NS(=O)(=O)c1ccc(F)cc1,inactive: -19.4%,
Cc1ccc(CNC(=O)c2cc3c(C)nc4ccccc4c3o2)cc1,inactive: 7.39%,
Cc1nc(-c2ccccc2)sc1C(=O)CSc1ccccc1,,"inconclusive [activator, partial curve]"
S=C(Nc1ccc2nc(-c3ccccn3)c(-c3ccccn3)nc2c1)N1CCOCC1,,"inconclusive [inhibitor, single point]"
CCc1ccc(/C=C(/C#N)C(N)=S)cc1,,"inconclusive [inhibitor, single point]"
CCOc1ccc(NC(=O)c2cccnc2SC)cc1,inactive: 3.66%,
CC(=O)Nc1cccc(Oc2ccc3c(c2)C(=O)N(CCC(=O)O)C3=O)c1,inactive: 15.4%,
O=C(NC(NC(=S)Nc1c(Cl)cccc1Cl)C(Cl)(Cl)Cl)c1cccc([N+](=O)[O-])c1 (configuration not stated),,"inconclusive [inhibitor, partial curve]"
CCOC(=O)c1c(C)nc2sc(C(=O)Nc3ccccc3)c(N)c2c1-c1ccc(OC)cc1,,"inconclusive [activator, partial curve]"
N#Cc1c(NC(=S)NC(=O)c2ccccc2)sc2c1CCN(CCc1ccccc1)C2,,"inconclusive [inhibitor, partial curve]"
CCOc1cc(N2CCOCC2)c(OCC)cc1NC(=O)c1c(-c2ccccc2Cl)noc1C,,"inconclusive [inhibitor, single point]"
CN(c1ccc(C(=O)NCC2CCCO2)cc1)S(C)(=O)=O (configuration not stated),inactive: -3.29%,
COc1ccccc1N1CCN(/N=C/c2cc([N+](=O)[O-])ccc2Cl)CC1,,"inconclusive [inhibitor, single point]"

SMILES,"activity, negative = inhibition",Potency
O=C(O)c1cccc2c1NC(c1cccc([N+](=O)[O-])c1)C1CC(Sc3ccccc3[N+](=O)[O-])C(Cl)C21 (configuration not stated),,"inconclusive [inhibitor, full curve, poor fit]"
Cc1sc2nc(SCC(=O)N3CCCCC3)[nH]c(=O)c2c1C,inactive: 19%,
C[N+]1(CCCCC[N+]2(C)CCCC2)CCCC1,,"inconclusive [activator, full curve, poor fit]"
O=C(Nc1ccc(OC(=O)N2CCCC2)cc1)N1CCOCC1,inactive: -2.81%,
COCCCNC(=O)Cn1cc(C(C)=O)c2ccccc21,inactive: 5.1%,
CC(Oc1ccc(Cl)cc1)C(=O)NNC(=S)NC(=O)c1ccco1 (configuration not stated),inactive: -27.1%,
Brc1ccc2[nH]cc(/C=N/N3CCCCC3)c2c1,inactive: -2.44%,
C=CCc1cccc2cc(C(=O)Nc3cccc(C(=O)O)c3)c(=O)oc12,inactive: 8.51%,
CN(C)c1ccc(NC(=O)Cn2cc3c(n2)CCCC3)cc1,,"inconclusive [inhibitor, partial curve]"
O=C(Nc1cc2c(oc1=O)CCCC2=O)c1ccc(Cl)cc1,,"inconclusive [inhibitor, partial curve]"
CCCN1C(=O)/C(=C/c2c(NCCCOC(C)C)nc3c(C)cccn3c2=O)SC1=S,inactive: 7.22%,
NCCC(O)C(=O)NC1C[C@@H](N)[C@H](O[C@@H]2OC(CN)C(O)C(O)C2O)C(O)[C@H]1O[C@H]1OC(CO)C(O)C(N)C1O (some centres not stated),,"inconclusive [activator, full curve]"
COc1ccc(N2CCN(C(c3cccs3)C(C)NS(=O)(=O)c3ccccc3)CC2)cc1 (configuration not stated),,"inconclusive [inhibitor, single point]"
Cc1cc(N2C(=O)C3CC=CCC3C2=O)cc(C)c1Br (configuration not stated),,"inconclusive [activator, partial curve, poor fit]"
CC1CN(C(=O)COC(=O)c2ccc(Cl)nc2)CC(C)O1 (configuration not stated),inactive: 16.8%,
O=C1NC(c2ccccc2)=N/C1=C/c1ccco1,,"inconclusive [inhibitor, single point]"
COc1ccc(OCCSc2nnc(C(C)NC(=O)c3ccccc3F)n2C)cc1 (configuration not stated),,"inconclusive [inhibitor, single point]"
Cc1nn(Cc2ccc(C(=O)NC(C)(C)C)o2)c(C)c1Br,inactive: 2.09%,
O=C1c2ccccc2C(=O)N1CCc1csc(NNc2nc(CCN3C(=O)c4ccccc4C3=O)cs2)n1,,"inconclusive [inhibitor, partial curve]"
CCOC(=O)Cc1cc(=O)n(-c2nc3ccccc3s2)[nH]1,,"inconclusive [inhibitor, single point]"
CN1CCN(C(=S)NC(=O)c2ccc(Br)cc2)CC1,inactive: 4.03%,
COc1ccc(Oc2nccc(-c3ccc(Cl)cc3)n2)cc1,,"inconclusive [activator, full curve, poor fit]"
COC(=O)c1cccnc1,,"inconclusive [activator, partial curve, poor fit]"
Fc1cccc(NC(=S)NNc2c3ccccc3nc3ccccc23)c1,,"inconclusive [inhibitor, single point]"
